Data taken from a protein production outcome set (Wang et al. 2014).

Assay: label from the status in PepcDB records

| Sequence | protein production |
| --- | --- |
| MEEIQQQQQQQQQQQQQQQQQQQQQQELTQEQIMEFKEAFCLFDKDGDGCITADELATVIRSLDQNPTEQELQDMITEIDSDGNGTIEFSEFLNLMANQLQETDADEELKEAFKVFDKDQNGYISASELRHVMINLGEKLTDEEVDQMIKEADLDGDGQVNYDEFVRMMMING | failed |
| DIVMTQSPDSLAVSLGERATINCKSSQSVLYSSNSKNYLAWYQQKPGQPPKLLIYWASTRESGVPDRFSGSGSGTDFTLTISSLQAEDVAVYYCQQYYSTPYSFGQGTKLEIKR | not failed |
| MPRSLKKGVFVDDHLLEKVLELNAKGEKRLIKTWSRRSTIVPEMVGHTIAVYNGKQHVPVYITENMVGHKLGEFAPTRTYRGHGKEAKATKKK | not failed |
